Test results taken from PubChem BioAssay AID1745853 (National Center for Advancing Translational Sciences (NCATS), 2022).
This is one part of the list. Further columns of the screen follow, without active or inactive calls.

Columns and labels:
Test in all cases: Primary Screen for Target Class Profiling of Small Molecule Inhibitors of Methyltransferases
[1] = molecular target: Glycine N-methyltransferase (Homo sapiens) (UniProt Q14749); details: purified enzyme, MTase-Glo SAH luminescence; measured here: GNMT inhibition; at 40 µM; stronger effect = lower value
How it was run: (§1)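 Each enzyme was assayed with SAM and its substrate. SAH formation detected by MTase-Glo luminescence; single-point 40 uM screen[…].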

[2] = molecular target: Guanidinoacetate N-methyltransferase (Homo sapiens) (UniProt Q14353); details: purified enzyme, MTase-Glo SAH luminescence; measured here: GAMT inhibition; at 40 µM; stronger effect = lower value
How it was run: as §1

[3] = molecular target: Histamine N-methyltransferase (Homo sapiens) (UniProt P50135); details: purified enzyme, MTase-Glo SAH luminescence; measured here: HNMT inhibition; at 40 µM; stronger effect = lower value
How it was run: as §1

[4] = molecular target: Nicotinamide N-methyltransferase (Homo sapiens) (UniProt P40261); details: purified enzyme, MTase-Glo SAH luminescence; measured here: NNMT inhibition; at 40 µM; stronger effect = lower value
How it was run: as §1

[5] = molecular target: Phenylethanolamine N-methyltransferase (Homo sapiens) (UniProt P11086); details: purified enzyme, MTase-Glo SAH luminescence; measured here: PNMT inhibition; at 40 µM; stronger effect = lower value
How it was run: as §1
On the % scale 0 is the no-effect control and ±100 the full control effect.

Row | Compound | activity change, negative = inhibition [1] | activity change, negative = inhibition [2] | activity change, negative = inhibition [3] | activity change, negative = inhibition [4] | activity change, negative = inhibition [5]
1 | O=S1(=O)CC(COCc2ccccc2)CN1c1ccccc1 (stereo unspecified) | -0.527% | 1.2% | 1.25% | -2.67% | -2.17%
2 | Cc1ccc(C)c(CSc2nnc3n(C)c(=O)c4ccc(C(=O)NC5CCCC5)cc4n23)c1 | -2.11% | 1.08% | 8.49% | 6.78% | 0.503%
3 | Cc1nc(C2CCN(C(=O)[C@H]3CNC[C@H](C(=O)N4CCCC4)C3)CC2)n[nH]1 | -2.84% | -1.7% | -1.32% | -1.08% | 1.86%
4 | C[C@@H](NCCCc1cccc(C(F)(F)F)c1)c1cccc2ccccc12 | – | 8.78% | – | -11.3% | -2.04%
5 | CC(=O)Nc1cccc(-n2c(=O)n(C3CC3)c(=O)c3c(Nc4ccc(I)cc4F)n(C)c(=O)c(C)c32)c1 | -6.38% | 5.13% | 7.92% | -12.7% | 6.05%
6 | COc1cccc(CNC(=O)N2Cc3c(sc4c3CCCC4)-n3cccc3C2c2ccccc2)c1 (stereo unspecified) | -9.72% | -3% | 2.09% | -18.5% | -2.56%
7 | Cc1sc2cc(C(=O)NC(C)C)[nH]c2c1CN1CCCCC1 | -1.99% | -0.485% | -4.13% | -4.55% | -6.9%
8 | CC1CCC(NC(=O)C2(C)Cn3c(cc4occc43)C(=O)N2Cc2cccc(Cl)c2)CC1 (stereo unspecified) | -3.35% | 3.1% | -5.22% | -9.05% | -8.94%
9 | Cc1cc2c(cc3n2CC(C)(C(=O)NC2CCCCCC2)N(C(C)CCc2ccccc2)C3=O)o1 (stereo unspecified) | 1.32% | 0% | 6.87% | -3.06% | -1.05%
10 | Cc1ccc(Cn2c(=O)c3ccccc3n3c(=O)n(CC(=O)NCc4ccccc4Cl)nc23)cc1 | 1.69% | 1.98% | 2.47% | -0.888% | 0.911%
11 | COc1ccc(C(=O)N2CCC(n3c(C)cnc3-c3ccncc3)C2)c(OC)c1 (stereo unspecified) | -3.56% | -4.22% | -0.898% | -8.3% | -4.19%
12 | COc1ccc(CN2CCN(C(=O)CCNC(=O)c3ccc(C(C)(C)C)cc3)CC2)cc1 | -1.68% | 10.8% | 10.4% | -22.4% | 2.23%
13 | O=C(CCc1conc1-c1ccc(F)cc1)NCC1CCCO1 (stereo unspecified) | -4.92% | -3.67% | -1.61% | -9.11% | -6.1%
14 | Cc1nc2c(C(F)(F)F)cccc2nc1-c1ccc(-c2cccc(S(C)(=O)=O)c2)cc1 | -3.23% | -16.7% | 3.4% | -20.8% | -10.3%
15 | Cc1ccc(CSc2nnc3n(Cc4ccccc4)c(=O)c4ccccc4n23)cc1 | 3.53% | 4.3% | 3.48% | -2.67% | 1.23%
16 | CC1CCC(NC(=O)C2(C)Cc3ccccc3C(=O)N2Cc2cccs2)CC1 (stereo unspecified) | -3.79% | 2.44% | -2.36% | -4.88% | -6.75%
17 | CC1CCN(S(=O)(=O)N2CCC(C(=O)N3CCc4nc5cc[nH]n5c(=O)c4C3)CC2)CC1 | -3.99% | 1.44% | -0.27% | -10.9% | -21.5%
18 | Cc1ccn(CCC(=O)NCc2cccnc2Oc2ccc(F)c(F)c2)n1 | -1.61% | -3.92% | -3.69% | -3.45% | 5.38%
19 | CC[N+](C)(C)c1cccc(O)c1 | 2.02% | 7.29% | -20.7% | -7.84% | -2.13%
20 | CC1(C)C=Cc2c(ccc3c2N=C2C(C)(C)[C@@H]4C[C@]56CCCN5C(=O)[C@@]4(C[C@]23O)NC6=O)O1 | 1.85% | 1.26% | 8.9% | -13.9% | 4.25%

Row | Compound | activity change, negative = inhibition [1] | activity change, negative = inhibition [2] | activity change, negative = inhibition [3] | activity change, negative = inhibition [4] | activity change, negative = inhibition [5]
21 | CC(C)CCn1c(=O)c2ccccc2n2c(SCC(=O)NCc3ccc(Cl)cc3)nnc12 | 4.51% | 0% | 6.94% | -0.608% | 5.08%
22 | CC1(C)CC[C@]2(C(=O)O)CC[C@]3(C)C(=CC[C@@H]4[C@@]5(C)C[C@@H](O)[C@H](O)C(C)(C)[C@@H]5CC[C@]43C)[C@@H]2C1 | – | 2.94% | – | -14.3% | 3.61%
23 | CC1(CO)CCCC2(C)C3COC(=O)C3=CC(O)C12 (stereo unspecified) | -3.59% | -4.25% | 2.76% | -14.1% | -12.9%
24 | COc1ccccc1-c1nnc2n(Cc3ccccc3)c(=O)c3ccccc3n12 | -9.3% | 2.19% | -7.35% | -7.36% | -4.77%
25 | OC[C@H](Cc1ccccc1)Nc1nc(Oc2ccc3c(c2)CCC3)nc2c1ncn2Cc1ccc(-c2ccccc2)cc1 | – | -28% | – | -57.9% | -32.7%
26 | CC1CCCCC1NC(=O)C1(C)Cn2c(nc3ccccc32)C(=O)N1CCc1ccc(Cl)cc1 (stereo unspecified) | -1.82% | 3.9% | 2.84% | -5.65% | -6.81%
27 | CCc1ccc(CN2C(=O)c3c(C(=O)OC)ncn3CC2(C)C(=O)NC2CCCCCC2)cc1 (stereo unspecified) | 0.605% | 0% | 0.073% | -1.17% | 2.23%
28 | C=CC(C)(C)c1[nH]c2ccccc2c1C[C@@H]1NC(=O)[C@H](Cc2c[nH]c3ccccc23)NC1=O | -0.476% | -3.6% | 4.53% | -15% | 1.87%
29 | COc1ccc(CNc2nc3c(-c4cccc(C)c4)nnn3c3ccccc23)cc1 | -5.52% | 0% | 1.01% | -1.04% | -4.96%
30 | CC(C)CNC(=O)c1ccc2c(=O)n(CC(C)C)c3nn(CC(=O)NCc4ccccc4)c(=O)n3c2c1 | -2.04% | 0.02% | 4.84% | -0.523% | 2.84%
31 | O=C(O)c1c[nH]c2c(ccc3ccccc32)c1=O | – | 2.81% | – | -8.25% | 5.27%
32 | O=c1n(CCN2CCCC(N[S+](=O)([O-])c3ccccc3)C2)nc2n1CCCC2 (stereo unspecified) | -0.128% | 1.46% | 3.8% | -4.1% | 2.1%
33 | CC(C)CCn1c(=O)c2ccccc2n2c(=O)n(CC(=O)Nc3cccc(F)c3)nc12 | 0.881% | 0% | 6.1% | -3.36% | 2.55%
34 | Cc1ccccc1N1C(=O)c2cc3occc3n2CC1(C)C(=O)NC1CCCCCCC1 (stereo unspecified) | 0.423% | 0% | 5.45% | 1.36% | 0.528%
35 | CCCn1c(=O)c2ccc(C(=O)NCC(C)C)cc2n2c(=O)n(CC(=O)NCc3ccccc3)nc12 | 3.97% | 0.783% | 4.64% | -1.79% | 1.31%
36 | CCOC(=O)C1CCN(S(=O)(=O)c2ccc(Cl)c(-c3nnc(-c4ccccc4)o3)c2)CC1 | 10.7% | 1.88% | 11.2% | 6.22% | 9.31%
37 | COc1ccccc1C(=O)N1CCC2(C1)NC(=O)c1ccccc1CO2 (stereo unspecified) | -10.7% | -9.9% | -3.31% | -13.5% | 8.97%
38 | Cc1ccc(CN2C(=O)c3cc(-c4ccco4)nn3CC2(C)C(=O)NC2CCCCCC2)cc1 (stereo unspecified) | 0.927% | 4.98% | 0.799% | -0.149% | -2.67%
39 | COCCN1C(=O)c2ccccc2C(C(=O)Nc2ccc3[nH]ccc3c2)C12CCCC2 (stereo unspecified) | -6.93% | -3.1% | -3.2% | -8.45% | -7.08%
40 | CC1CCC(NC(=O)C2(C)Cn3c(nc4ccccc43)C(=O)N2CC(C)c2ccccc2)CC1 (stereo unspecified) | -5.87% | -7.46% | -3.75% | -8.77% | -8.63%

Row | Compound | activity change, negative = inhibition [1] | activity change, negative = inhibition [2] | activity change, negative = inhibition [3] | activity change, negative = inhibition [4] | activity change, negative = inhibition [5]
41 | CC12CCC(OC3OC(CO)C(O)C(O)C3OC3OC(CO)C(O)C(O)C3O)CC1CCC1C2CCC2(C)/C(=C3/COC(=O)C3)CCC12O (stereo unspecified) | -3.97% | -2.58% | -0.982% | -12.2% | 1.74%
42 | O=C1CCN(C(=O)c2ccoc2)CCCC(c2nc(-c3cccnc3)no2)CCN1 (stereo unspecified) | -4.9% | -6.11% | -3.56% | -7.74% | -3.74%
43 | Cc1cccc(N2CCN(CC(=O)Nc3ccc4[nH]c(=O)[nH]c4c3)CC2C)c1 (stereo unspecified) | -8.84% | 4.28% | 0.704% | 5.5% | -8.18%
44 | CCOC(=O)c1cc2n(n1)CC(C)(C(=O)NCCOC)N(c1ccc(C)cc1C)C2=O (stereo unspecified) | 3.45% | 0% | 4.83% | 5.65% | 3.27%
45 | Cn1cc(C(=O)N2CCCC(c3nnnn3C)C2)cn1 (stereo unspecified) | -3.96% | -7.25% | -1.23% | -8.8% | -4.27%
46 | CNc1nc(Cc2ccccc2)nc2c1CCNC[C@@H]2C | 0.01% | 0.148% | -0.498% | -17.5% | -3.15%
47 | O=C(CCc1nnc2n(Cc3ccccc3)c(=O)c3ccccc3n12)N1CCN(c2ccccc2)CC1 | -10.1% | 0.003% | -4.56% | -8.96% | -4.71%
48 | Cc1nc(CC(=O)N2CCCC(c3ccc(C(=O)O)cc3)C2)cs1 (stereo unspecified) | -2.15% | -3.75% | 0.066% | -10.1% | 5.77%
49 | O=C1NC(=O)C(c2cnc3ccccn23)=C1c1cn2c3c(cc(F)cc13)CN(C(=O)N1CCCCC1)CC2 | -41.7% | -10.8% | -25.9% | -63% | -27.4%
50 | CCOC(=O)c1cc2n(n1)CC(C)(C(=O)NC1CCCCC1)N(c1cc(C)cc(C)c1)C2=O (stereo unspecified) | 5.04% | 0% | -6.31% | 9.6% | 5.41%
51 | Cc1cc(CN2CC(Oc3ccc(F)c(F)c3)C2)no1 | -4.81% | -3.36% | -2.27% | -9.95% | -8.69%
52 | O=C(CC[C@@H]1CNC(=O)[C@@H]2C[C@H](NC(=O)Nc3ccc(F)cc3F)CN12)NC1CC1 | 0.24% | 0.618% | 2.19% | -1.17% | 0.739%
53 | COCCNC(=O)C[C@@H]1C[C@@H](C(C)C)[C@H](CNC(=O)C2CC2)C=C1C | -8.53% | -7.27% | -11.4% | -16.5% | -5.85%
54 | O=C(/C=C/C#Cc1cccc(NS(=O)(=O)c2ccccc2)c1)NO | -7.67% | – | 13.9% | 2.56% | 10.9%
55 | C=C1CC2C(C)(CCC(=O)O)C(C(C)(C)O)CCC2(C)C2(C(=O)OC)C(=O)C(C)(O)C(=O)C12C (stereo unspecified) | -3.02% | -3.66% | 6.52% | -19% | -13.6%
56 | c1ccc(O[C@H]2COCCN(Cc3cccc4c3OCO4)C2)cc1 | -2.69% | 0.698% | 0.298% | 0.395% | 0.371%
57 | CN(C)C/C=C/C(=O)Nc1ccc(C(=O)Nc2cccc(Nc3ncc(Cl)c(-c4c[nH]c5ccccc45)n3)c2)cc1 | -42.9% | -1.04% | -2.07% | -56.3% | -1.39%
58 | C#CCNC(=O)C1CCc2nnc(-c3ccc(Cl)cc3Cl)n21 (stereo unspecified) | -3.51% | -4.67% | -1.79% | -4.29% | -6.93%
59 | COCCCN1C(=O)c2cc3occc3n2CC1(C)C(=O)NC1CCC(C)CC1 (stereo unspecified) | -8.16% | 2.98% | -3.46% | -4% | -8.26%
60 | COc1nccnc1NC1CCN(C(=O)c2ccco2)CC1 | -1.01% | 0.079% | -0.336% | -7.84% | 9.38%
